# Reference: the supplement of paper PMC10126150
# Sequences with one replicate were seen in a single cluster, so their values are uncertain.
# Test system: ATP
# Assay: switch fluorescence ratio, 500 uM ATP over buffer (Cy3 cluster intensity, sum of 5 cycles each) (fold (ratio)); higher = stronger signal-on switching upon ATP binding; sequences stand for … in TCGTCGGCAGCGTCAGATGTGTATAAGAGACAGTTTTTTTTTTTTTTTTTTTTTTTTT…TC
# Settings: aptamer strand: ATP DNA aptamer (quencher-CACCTGGGGGAGTATTGCGGAGGAAGG + anchor), 100 nM annealed; ATP concentration: 500 uM; one replicate
# Method in brief: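 After annealing to 100 nM quencher-labelled ATP aptamer, Cy3-labelled switching-strand clusters on a modified Illumina MiSeq flow-cell were imaged in selection buffer. A second image followed after 15 min with 500 uM ATP at 22 °C, and five such buffer/ATP cycles were done, each separated by NaOH stripping and re-annealing. The fluorescence ratio, averaged per switch-domain sequence, is summed target-cycle over summed buffer-cycle Cy3 intensity per cluster, with clusters outside 100-1000 RFU excluded.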
# 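Further: ATP exposure 15 min at 22 °C before imaging.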
row,Sequence,switch fluorescence ratio
1,TTGACATTTT,1.06
2,CTTGAAGATA,1.03
3,AGTAAGAACT,1.05
4,CGAAAGCGCT,1.03
5,CGATGATCTG,0.977
6,TGGATTTTAC,0.989
7,TTAGGGCGG,0.966
8,CCTCACAGG,1.52
9,CCGTCCCTCG,1.23
10,GGTTTGCGAG,0.972
11,GGCTATGGTT,1.01
12,TAGAGGACA,1.02
13,ATGTGCG,0.996
14,GAGTAAAGCC,1.01
15,AAATGGATAC,1.04
16,TGCAGGCATC,0.96
17,TGGTTGCATT,1
18,CAGCGTCCAA,1
19,GGCATGGTTG,0.986
20,GACTGGCATT,1.04
21,ATCCTTACAG,1.02
22,CGTGTAGCAG,0.971
23,GCAGGAGGTA,0.985
24,TTGCTAATTT,1
25,ATGTCACGC,1.1
26,ATAATCAATG,0.984

row,Sequence,switch fluorescence ratio
1,GGGAGTTGTG,0.93
2,ATGGATCAAT,1.03
3,AAAGGATTCC,1.06
4,CATACTATGG,1.04
5,ACTCACTGCG,1.13
6,CTATTTGATT,1.02
7,CTCGCGTGGG,0.988
8,ACTGTGATTG,0.997
9,CGGGACTAGG,0.961
10,TCAGGACAC,1.04
11,GTGTTCGTTC,1.01
12,TCCCGAGGTG,1.01
13,ACATGGCAGC,1.03
14,GCAGGCGGAG,1.02
15,TGGTTTACA,0.988
16,ACAGTCAAGC,1.09
17,CCGTTAGCAG,2.64
18,TTACAGTGTA,0.969
19,ATTTGACACT,1.2
20,TAAGTAATGC,0.999
21,GGAAGGCTTG,1.01
22,GGCCACCGTT,1
23,CCACTGCAGC,3.9
24,CGATGGGCAA,1.52
25,CTAGGAGGTA,1.02
26,GATATATAGT,0.995

row,Sequence,switch fluorescence ratio
1,ATAAGAGGCT,0.974
2,TCCTATTTAG,1
3,GATACGGATA,1.04
4,TGGATGTGTT,1
5,ACGCGAACAC,1.72
6,GTCGCTATTT,0.973
7,TAAGTTCTAG,0.946
8,AGAGCCAGGG,1
9,GTTATGTTCC,1.04
10,GGGCTGCAAG,1.01
11,GCTCATGAGT,0.966
12,TATCGGGTT,0.97
13,ATTCTCTAGG,0.981
14,GGCTAAGCGG,1.03
15,TGGTGTGCAG,0.929
16,TCGGACGGTA,1.24
17,GCTGGAAAGT,0.956
18,CTGGGTAGGA,0.988
19,TAGACATCAT,0.979
20,TCGTGTGGAA,1.02
21,CCGGCACTCT,1.22
22,ACAGAGGGCC,0.973
23,AGGTAATGGA,0.997
24,CCCCATGCGC,1.17
25,TACTCTCAGG,1.51
26,CTCGCCGGAG,1.01

row,Sequence,switch fluorescence ratio
1,AGGGCACC,1.03
2,ATAACGACGC,2.37
3,CCAATACAAC,1.41
4,TTACTCAA,1.05
5,GTGGATAGAA,0.993
6,CTATGACACG,0.997
7,TTCCAGGTCA,1.04
8,CGACCTCAAA,1.08
9,TTGATGTA,0.951
10,CATAGCATCG,1.18
11,TGGTCCTCGG,1.09
12,AGTCCGGCTT,1.06
13,CTGAAGATCC,1.6
14,TCTGATGCGG,1.06
15,TAAACCCTCT,1.33
16,GGACTGTGAC,1.08
17,GCCCTAAGG,1.02
18,CTCTAATTCT,0.986
19,GTAGCCGGAG,0.928
20,CATGGGAGGC,1.08
21,TTTAATCGGT,0.963
22,AATGGTATC,0.966
23,GTAGCCCTTT,0.995
